First the molecules themselves.
B1: OR4K15 (parent)
chain: GUUAACGGUCAUAGGCCAUGGAAACUAGGAGCACCAUUUCGCUGCCAGUGAAGAAAUGAACAAAGAAAAUCUGGGCCAGGCAGGCAUCAAAAGAAAUAGUCUUGCGCUCAACCAGAAAGUCUGUAAUCAUUUUAAGGGUA

Read counts are not given, so values of variants with three or more changes are uncertain.

Variants of B1 are the subject of the data set. The data set is described as follows: self-cleavage, relative activity (ratio to wild type); higher = more cleavage; in vitro, sequencing; the parent is a self-cleaving ribozyme.
As for GUUAACGGCCAUAGGCCAUGGAAACUAGGAGCACCAUUUCGCUGCCAGUGAAGAAAUGAGCAAAGAAAAUCUGGGCCAGGCAGGCAUCAAAAGAAAUAGUCUUGCGCUCAACCAGAAAGUCUGUAAUCAUCUUAAGGGUA [U9C A60G U131C], the self-cleavage was found to be 1.73.
On to GUUAACGGCCAUAGGCCAUGGAAACUAGGAGCACCAUUUCGCUGCCAGUGAAGAAAUGAACAAAGAAAAUCUGGGCCAGGCAGGCAUCAAUAGAAAUAGUCUUGCGCUCAGCCAGAAAGUCUGUAAUCAUUUUAAGGGUA [U9C A91U A111G], for which the self-cleavage was determined as 0.02.
GUUAACGGCCAUAGGCCAUGGAAACUAGGAGCACCAUUUCGCUGCCAGUGAAGAAAUGAACAAAGAAAAUCUGGGCCAGGCAGGCAUCAAAAGAUAUAGUCUUGCGCUCGACCAGAUAGUCUGUAACCAUUUUAAGGGUA [U9C A95U A110G A117U U127C]: the self-cleavage was determined as 0.08.
As to GUUAACGGCCAUAGGCCAUGGAAACUAGGAGCACCAUUUCGCUGCCAGUGAAGAAAUGAACAAAGAAGAUCUGGGCCAGGCAGGCAUCAAAAGGAAUAGUCUUGCGCUCAACCAGAAAGUCUGUAAUCAUUUUAAGGGUA [U9C A68G A94G], the self-cleavage was determined as 0.82.
Consider GUUAACGGCCAUAGGCCAUGGAAACUAGGAGCACCAUUUCGCUGCCAGUGAAGAAAUGAACAAAGGAAAUCUGGGCCAGGCAGGCAUCAAAAGAAAUAGUCUUGCGCUCAACCUGAAAGUCUGUAAUCAUUUUAAGGGUA [U9C A66G A114U], for which the self-cleavage was determined as 0.04.
Take GUUAACGGCCAUAGGCCAUGGAAACUAGGAGCACCAUUUCGCUGCCAGUGAAGAAAUGAACAAAGAAAGUCUGGGCCAGGCGGGCAUCAAAAGAAAUAGUCUUGCGCUCAACCAGAAAGUCUGUAAUCAUUUUAAGGGUA [U9C A69G A82G]: the self-cleavage amounted to 0.41.
Regarding GUUAACGGCCAUAGGCCAUGGAAACUAGGAGCACCAUUUCGCUGCCAGUGAAGAAAUGAACAGAGAAAAUCUGGGCCUGGCAGGCAUCAAAAGAAAUAGUCUUGCGCUCAACCAGAAAGUCUGUAAUCAUUUUAAGGGUA [U9C A63G A78U], the self-cleavage was 0.41.
The figure for GUUAACGGCCAUAGGCCAUGGAAACUAGGAGCACCAUUUCGCUGCCAGUGAAGAAAUGAACAAAGAAAAUCUGGGCCAGGCAGGCGUCAAAAGAAAUAGUCUUGCGCUCAACCAGAAAGCCUGUAGUCAUUUUAAGGGUA [U9C A86G U120C A126G] is 0.87.
The same measure for GUUAACGGCCAUAGGCCAUGGAAACUAGGAGCACCAUUUCGCUGCCAGUGAAGAAAUGAACAAAGAAAAUCUGGGCCAGGCAGGCGUCAAAAGAAAUAGUCUUGCGCUCAACCGGAAAGUCUGUAAUCAUUUUAAGGGUA [U9C A86G A114G]: 0.81.
The figure for GUUAACGGCCAUAGGCCAUGGAAACUAGGAGCACCAUUUCGCUGCCAGUGAAGAAAUGAACAAAGAAAAUCUGGGCCAGGCAGGCAUCAAAAGAAAUAGUCUUGCGCUCAUCCAGAAAGUCUGUAGUCAUUUUAAUGGUA [U9C A111U A126G G136U] is 0.09; for GUUAACGGCCAUAGGCCAUGGAAACUAGGAGCACCAUUUCGCUGCCAGUGAAGAAAUGAACAAAGAAGAUCUGGGCCAGGCAGGCACCAAAAGAAAUAGUCUUGCGCUCAACCAGAUAGUCUGUAAUCAUUUUAAGGGUA [U9C A68G U87C A117U] it is 0.44; for GUUAACGGCCAUAGGCCAUGGAAACUAGGAGCACCAUUUCGCUGCCAGUGAAGAAAUGAGCAAAGAAAAUCUGGGCCAGGCAGGCAUCAAAAGAAAUAGUCUUGCACUCAACCAGAAAGUCUGUAAUCAUUUUAAGGGUA [U9C A60G G106A] it is 0.02.
On to GUUAACGGCCAUAGGCCAUGGAAACUAGGAGCACCAUUUCGCUGCCAGUGAAGAAAUGAUCAAAGAAGUUCUGGGCCAGGCAGGCAUCAAAAGAAAUAGUCUUGCGCACAACCAGAAAGUCUGUAAUCAUUUUAAGGGUA [U9C A60U A68G A69U U108A], for which the self-cleavage stood at 0.02.
The same measure for GUUAACGGCCAUAGGCCAUGGAAACUAGGAGCACCAUUUCGCUGCCAGUGAAGAAAUGAACAAAGAAGAUCUGGGCCAGGCAGGCAUCAAAAGAAAUAGUCUUGCGCUCAACCAGAGAGUCUGUAAUCACUUUAAGGGUA [U9C A68G A117G U130C]: 1.24; for GUUAACGGCCAUAGGCCAUGGAAACUAGGAGCACCAUUUCGCUGCCAGUGAAGAAAUGAACAAAGAAAAUCUGGGCCAGGCAGGCAUCGAAAGAAAUCGUCUUGCGCUCAACCAGAAAGUCUGUAAUCAUUUUAAGGGUA [U9C A89G A98C]: 1.18.
For GUUAACGGCCAUAGGCCAUGGAAACUAGGAGCACCAUUUCGCUGCCAGUGAAGAAAUGAGCAAAGAAAAUCUGUGCCAGGCAGGCAUCAAAAGAAAUAGUCUUGCGCUCAACCAGAAAGUCUGUAAUCAUUUUAAGGGUA [U9C A60G G74U], the self-cleavage was 0.12.
The figure for GUUAACGGCCAUAGGCCAUGGAAACUAGGAGCACCAUUUCGCUGCCAGUGAAGAAAUGAACAAAGAAAAUCUGGGCCAGGCAGGCAUCAAAGGAAUUAGUCUUGCGCUCAACCAGAAAGUCUGUAAUCAUCUUAAGGGUA [U9C A92G A96U U131C] is 0.31.
On to GUUAACGGCCAUAGGCUAUGGUGACUAGGAGCACCACUUCGCUGCCAGUGAAGAAAUGAACUAAGAAAAUCUGGGCCAGGCAGGCAUCAAAAGAAAUAGUCUUGCGCUCAACCAGUAAGUCUGUAAUCAUUUUAAGGGUA [U9C C17U A22U A23G U37C A62U A116U], for which the self-cleavage turned out to be 0.26.
As to GUUAACGGCCAUAGGCUAUGGAAACUAGGAGCACCACUUCGCUGCCAGUGAAGAAAUGAACAAAGAAAAUCUGGGCCAGGCAGGCAUCAAAAGAAAUAGUCUUGCGCCCAACCAGAAAGUCUGUAAUCAUUUUAAGGGUA [U9C C17U U37C U108C], the self-cleavage was 0.05.
The same measure for GUUAACGGCCAUAGGCCAUGGAAACUAGGAGCACCAUUUCGCUGCCAGUGAAGAAAUGAACAAAGAAAAUCUGGGCCAGGCAGGCAUCAAAGGAAAUAGUCUUGCGCUCAACCGGGAAGUCUGUAAUCAUUUUAAGGGUA [U9C A92G A114G A116G]: 0.1.

These data come from the RNAGym collection of RNA variant scans (doi:10.7554/elife.90254).
